The results in this text go back to publication PMC4336329 (PLoS ONE, 2015).

Each structure is given as a SMILES string. About 14,000 (4.5%) of roughly 310,000 compounds showed an effect of 50% or more. The effect is printed as a negative number. Some of the results follow.
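Further: peak tail current of the secondary pulse compared with the same well before compound.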

human ether-à-go-go-related gene (hERG) potassium channel, sequence (Q12809 whole entry, looked up): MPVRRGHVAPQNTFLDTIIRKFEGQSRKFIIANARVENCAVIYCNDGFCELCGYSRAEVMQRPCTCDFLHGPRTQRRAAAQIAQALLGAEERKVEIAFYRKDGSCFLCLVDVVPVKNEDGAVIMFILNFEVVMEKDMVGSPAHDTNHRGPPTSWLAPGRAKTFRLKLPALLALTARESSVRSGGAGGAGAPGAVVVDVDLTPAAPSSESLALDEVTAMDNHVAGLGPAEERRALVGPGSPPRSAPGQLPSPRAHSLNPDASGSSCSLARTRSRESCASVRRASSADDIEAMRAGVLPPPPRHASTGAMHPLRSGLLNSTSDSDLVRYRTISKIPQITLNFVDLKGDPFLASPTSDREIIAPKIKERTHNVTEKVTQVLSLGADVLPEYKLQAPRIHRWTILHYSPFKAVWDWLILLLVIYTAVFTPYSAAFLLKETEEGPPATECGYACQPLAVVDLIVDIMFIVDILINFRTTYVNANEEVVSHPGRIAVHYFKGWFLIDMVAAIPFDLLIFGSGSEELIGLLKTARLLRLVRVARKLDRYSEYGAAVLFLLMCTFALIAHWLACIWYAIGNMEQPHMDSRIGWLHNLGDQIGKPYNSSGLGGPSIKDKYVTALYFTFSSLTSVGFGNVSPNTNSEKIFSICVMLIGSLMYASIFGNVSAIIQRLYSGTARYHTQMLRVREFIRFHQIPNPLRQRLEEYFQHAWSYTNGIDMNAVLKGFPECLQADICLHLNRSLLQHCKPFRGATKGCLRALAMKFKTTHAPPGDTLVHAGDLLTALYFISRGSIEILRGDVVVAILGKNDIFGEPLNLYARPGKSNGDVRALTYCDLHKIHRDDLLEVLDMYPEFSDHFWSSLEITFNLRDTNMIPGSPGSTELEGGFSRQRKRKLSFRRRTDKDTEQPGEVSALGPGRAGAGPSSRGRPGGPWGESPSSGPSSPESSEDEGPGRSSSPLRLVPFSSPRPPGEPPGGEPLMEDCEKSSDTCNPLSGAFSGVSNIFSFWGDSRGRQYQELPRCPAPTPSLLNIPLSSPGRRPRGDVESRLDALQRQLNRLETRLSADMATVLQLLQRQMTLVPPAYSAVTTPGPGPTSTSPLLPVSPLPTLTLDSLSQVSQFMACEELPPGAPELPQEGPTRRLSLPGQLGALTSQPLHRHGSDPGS

The assay has as its target human ether-à-go-go-related gene (hERG) potassium channel (human, UniProt Q12809). Description: primary screen, population patch clamp on CHO cells stably expressing hERG.
Consider `O=C1CC(N2CCCc3ccccc32)C(=O)N1c1ccccc1Cl` (stereo not shown), for which the “hERG current change (%, negative = inhibition) at 10uM” value was -6.32%.
For `COC(=O)C1C/C(=N\NS(=O)(=O)c2ccc(C)cc2)c2ccsc2C1` (stereo not shown) the value was -9.22%; for `COc1ccc(C(=O)COC(=O)CCn2nnc(-c3cccc(O)c3OC)n2)cc1`, 13.9%; for `CCc1nc(C)c(-c2ccccc2)c(=O)[nH]1`, 5.92%.
For `CCCCOC(=O)c1cc(=O)[nH]c(=O)[nH]1` the value was 16%; for `COc1ccccc1-c1nc(SCC(=O)O)n[nH]1`, -1.65%.
For the compound `O=C(Nc1ccc2c(c1)C(=O)N(C1CCCCC1)C2=O)C1CCCO1` (stereo not shown), the “hERG current change (%, negative = inhibition) at 10uM” value is recorded as -14.6%.
In the case of `Cc1cc(N2CCN(c3nc(-c4ccc([N+](=O)[O-])cc4)cs3)CC2)c2ccccc2n1`, the “hERG current change (%, negative = inhibition) at 10uM” value is reported as -33.4%.
`COc1ccc(-c2nc(C#N)c(N3CCCCC3)o2)cc1`: the “hERG current change (%, negative = inhibition) at 10uM” value is on record as -2.53%.
Consider `COc1cc(Cl)c(C)cc1NC(=O)COC(=O)CCc1nc2ccccc2c(=O)[nH]1`, for which the “hERG current change (%, negative = inhibition) at 10uM” value is recorded as -3.99%.
For `CC1CCCN(C(=O)Cn2c(-c3nonc3N)nc3ccccc32)C1` (stereo not shown) the value was -4.01%; for `Cc1cc(OC(=O)c2ccc(C(F)(F)F)cc2)c([N+](=O)[O-])c(=O)[nH]1`, 16.1%; for `N#Cc1ccc(CSc2nnc(-c3ccncc3)o2)cc1`, -43.7%.
Regarding `CCN(c1ccccc1)S(=O)(=O)c1ccc(C(=O)Nc2nnc(CSC)o2)cc1`, the “hERG current change (%, negative = inhibition) at 10uM” value worked out at 3.97%.
As for `Nn1c(SCC(=O)Nc2cccc(F)c2)nnc1C1CCCCC1`, the “hERG current change (%, negative = inhibition) at 10uM” value is -0.18%.
As for `Cc1c(Nc2nc3ccccc3nc2NS(=O)(=O)c2ccccc2)c(=O)n(-c2ccccc2)n1C`, the “hERG current change (%, negative = inhibition) at 10uM” value is -67.1%.
For `COc1ccnc2c1c(=O)n(Cc1ccc(F)cc1)c(=O)n2C` the value was -6.22%; for `O=C(Nc1ccccc1)NC1CCCc2ccccc21` (stereo not shown), 22.2%; for `COc1cc(OC)cc(C(=O)NNC(=O)c2cc(=O)[nH]c3ccccc23)c1`, -13%.
For `CCCS(=O)(=O)c1c(S(=O)(=O)CCC)c2cnccn2c1C(=O)c1ccc(CC)cc1`, the “hERG current change (%, negative = inhibition) at 10uM” value is reported as -37.5%.
For `CN(C)S(=O)(=O)c1ccc(N2CCCC2)c(C(=O)Nc2nc3ccccc3s2)c1` the value was -4.58%; for `COc1ccc2c(c1)C(c1ccc(N3CCOCC3)cc1)=NNC(c1cccnc1)=N2`, -5.34%; for `COc1ccc2nc3ccccc3nc2c1NC(=O)c1ccc(Cl)cc1`, 3.31%.
Next, `O=C(CCSCCC(=O)NCCN1CCOCC1)NCCN1CCOCC1`: 8.96%; `O=C(NCC(=O)N(c1ccccc1F)C(C(=O)NC1CCCC1)c1ccco1)c1ccco1` (stereo not shown): 5.88%; `CC(=O)Nc1ccc(S(=O)(=O)N2CCN=C2SCc2ccc(F)cc2)cc1`: -1.91%.
For the compound `Cc1cnc(C(=O)Oc2c(C)ccc(C)c2C)cn1`, the “hERG current change (%, negative = inhibition) at 10uM” value is given as -19.4%.
Turning to `COc1cc(/C=C/C(=O)OCC(=O)Nc2c(C)n(C)n(-c3ccccc3)c2=O)ccc1O`, the “hERG current change (%, negative = inhibition) at 10uM” value was 12.2%.
For `Cc1nn(-c2ccc(F)cc2)c(C)c1NS(=O)(=O)c1ccc2ccccc2c1` the value was 10.9%.
Next, `O=C(COC(=O)CC(c1ccccc1)c1ccccc1)Nc1ccc(F)c(F)c1`: -16.5%; `c1cc(-c2nsc(-c3ccncc3)n2)ccn1`: -6.31%; `Cc1ccc(N2C(=O)CCC2(C(N)=O)c2ccccc2)cc1` (stereo not shown): -0.976%.
As for `CCCCn1nc(C(=O)Nc2nc3c(s2)CCCC3)c2ccccc2c1=O`, the “hERG current change (%, negative = inhibition) at 10uM” value is -6.91%.
For `Cc1ccc(CNC(=O)CN(C)C2=NS(=O)(=O)c3ccccc32)cc1` the value was -25.6%.
For `CCc1nnc(NC(=O)CCC(=O)N2CCCC2)s1` the value was 10.2%.
For `Br.COc1ccc(/C=N/Nc2nc(C(=O)O)cs2)cc1` the value was 16%; for `C/C(=N\NC(=O)C(N)=O)c1cccc(C(F)(F)F)c1`, 34.8%; for `CC1CN2c3ccc([N+](=O)[O-])cc3CC3(C(=O)N(C)C(=O)N(C)C3=O)C2C(C)O1` (stereo not shown), 12%.
Consider `COc1ccc(C(=O)O/N=C(\N)Cc2ccc([N+](=O)[O-])cc2)c(OC)c1`, for which the “hERG current change (%, negative = inhibition) at 10uM” value was -57.1%.
Next, `C/C(CCc1ccc2c(c1)OCO2)=N\NC(=O)c1ccccc1`: 9.96%; `CSC1=NCCN1S(=O)(=O)c1ccc2ccccc2c1`: -13.2%.
Regarding `O=C(CCSCCC(=O)Nc1c(F)c(F)c(F)c(F)c1F)Nc1c(F)c(F)c(F)c(F)c1F`, the “hERG current change (%, negative = inhibition) at 10uM” value is reported as -7.23%.
`Cc1cc(C)c(COc2ccc(/C=N/n3c(C)n[nH]c3=S)cc2)c(C)c1`: the “hERG current change (%, negative = inhibition) at 10uM” value is listed as 7.78%.
Next, `Nc1nonc1-n1nnc(C(=O)N/N=C/c2ccccc2Cl)c1CSc1ccccc1`: 20.9%; `CCOc1ccc2nc(N(Cc3ccccc3)C(=O)CCNC(C)=O)sc2c1`: -61%; `CCCCN1C=CC(=C2C(=O)c3ccccc3C2=O)C=C1`: -1.69%.
As to `O=C(CSc1nc(-c2ccco2)cc(C(F)(F)F)n1)NCCN1CCOCC1`, the “hERG current change (%, negative = inhibition) at 10uM” value is -2.09%.
On to `Cc1ccc(OC(=S)Nc2ccc(O)cc2)cc1`, for which the “hERG current change (%, negative = inhibition) at 10uM” value is reported as -21.3%.
With `COc1ccc(CN2CCN(CC=C(C)C)C(CCO)C2)cc1Cn1cncn1` (stereo not shown), the “hERG current change (%, negative = inhibition) at 10uM” value was -0.719%.
With `COc1ccc(Cn2ccnc2SCC(=O)Nc2ccccc2OC)cc1`, the “hERG current change (%, negative = inhibition) at 10uM” value is -21.2%.
For `CC(C)N(C(=O)c1ccc(-c2ccccc2F)cc1)C(C)C`, the “hERG current change (%, negative = inhibition) at 10uM” value is 4.34%.
`O=C(O)c1ccc(OCCCCCCOC2CCCCO2)cc1` (stereo not shown): the “hERG current change (%, negative = inhibition) at 10uM” value stood at 19.1%.
For `Cc1cc2c(cc1C)N(CC(=O)N1CCCC1)C(=O)CC(c1ccccc1)=N2` the value was -23.9%; for `Cc1nn(-c2ccccc2)c2sc(-c3nnc(SCC(=O)O)o3)cc12`, 8.23%.
For `O=C(O)C1=C[C@H](c2ccc(C(F)(F)F)cc2)C[C@H](OCCCCO)O1` the value was 8.42%.
For `OCCC1CN(Cc2cnc(N3CCOCC3)s2)CCN1C1CCCC1` (stereo not shown) the value was 8.52%.
Consider `Clc1ccc(CN2CCC(c3nc4ccc(Cl)cc4[nH]3)CC2)cc1`, for which the “hERG current change (%, negative = inhibition) at 10uM” value is reported as -80.7%.
`COc1cc(C(=O)N2CCC(C(=O)Nc3cccc(C(C)=O)c3)CC2)cc(OC)c1OC`: the “hERG current change (%, negative = inhibition) at 10uM” value is -2.12%.
On to `O=C(c1ccccc1)N1CCN=C1SCc1ccc([N+](=O)[O-])cc1`, for which the “hERG current change (%, negative = inhibition) at 10uM” value is listed as -56.4%.
On to `CCCc1ccc(OCC(=O)O)cc1`, for which the “hERG current change (%, negative = inhibition) at 10uM” value stood at 13.6%.
As to `O=C(OCCC1Oc2cccnc2NC1=O)c1ccc(Cl)cc1` (stereo not shown), the “hERG current change (%, negative = inhibition) at 10uM” value was 10.1%.
Consider `O=c1[nH][nH]c(-c2ccccc2O)c1C(C[N+](=O)[O-])c1ccc(Br)cc1` (stereo not shown), for which the “hERG current change (%, negative = inhibition) at 10uM” value worked out at 15%.
Next, `CC1CN=C(N(C(=O)Nc2ccccc2)C(C)c2ccccc2)S1` (stereo not shown): 14.5%; `COc1ccc(C(=O)COC(=O)CCNS(=O)(=O)c2ccccc2)cc1Br`: -1.53%; `COc1ccc(NC(=O)C2CCCN(c3ncnc4onc(-c5ccc(F)cc5)c34)C2)cc1` (stereo not shown): -7.24%.
Next, `CC(=O)c1ccc(S(=O)(=O)N2CCN(S(=O)(=O)c3ccccc3C(F)(F)F)CC2)cc1`: 17.9%.
On to `O=c1[nH]c2cc([N+](=O)[O-])c([N+](=O)[O-])cc2[nH]c1=O`, for which the “hERG current change (%, negative = inhibition) at 10uM” value turned out to be 5.87%.
Next, `CCOc1cccc(C(=O)N2CCCN(C)CC2)c1`: 3.11%; `CC1(C)CC(=O)c2sc(NS(=O)(=O)c3ccc(Br)cc3)nc2C1`: 27%.
Take `Cc1ccnc(SCC(=O)Nc2cc(C)on2)n1`: the “hERG current change (%, negative = inhibition) at 10uM” value amounted to 14.4%.
Next, `O=C(Nc1ccc(Nc2ccccc2)cc1)c1ccco1`: -26%; `CCOC(=O)C1=C(C)NC(C)=C(C(=O)OCC)C1c1ccccn1`: 15.4%; `Cc1nc2cc(NS(=O)(=O)c3ccccc3)ccc2n1C`: 9.21%.
For `CCCCCC(=O)NC(=S)Nc1cccc(-c2nc3ncccc3o2)c1`, the “hERG current change (%, negative = inhibition) at 10uM” value is reported as -3.22%.
Next, `COc1cc2[nH]c3c(c2cc1OC)CCN1CCCC[C@@H]31`: 13.4%.
Regarding `C=C(C)c1ccc(C(C)(C)NC(=O)N(Cc2ccccc2)Cc2ccco2)cc1`, the “hERG current change (%, negative = inhibition) at 10uM” value was -1.79%.
For `COC(=O)CCC(=O)OC1(C)C(=O)C=C2C=C(C3CC3)N(CCc3ccccn3)C=C2C1=O` (stereo not shown) the value was 14.2%; for `COc1ccc([C@H]2CC(=O)C=C(c3cccc4c3Oc3ccccc3S4)C2)cc1OC`, -13.1%.
Take `COC(=O)c1c(N(S(C)(=O)=O)S(C)(=O)=O)sc2c1CCN(c1ncc(C(F)(F)F)cc1Cl)C2`: the “hERG current change (%, negative = inhibition) at 10uM” value is listed as 13%.
In the case of `O=C(NCc1ccccc1)c1onc(CSc2ccc(Cl)cc2)c1C(=O)NCc1ccccc1`, the “hERG current change (%, negative = inhibition) at 10uM” value came to 9.17%.
With `COC(=O)CC1C(=O)NCCN1C(=O)c1cc(OC)c(OC)cc1OC` (stereo not shown), the “hERG current change (%, negative = inhibition) at 10uM” value came out at 23.2%.
For `CCC(C(=O)Nc1nc(C)c(C(=O)OC)s1)c1ccccc1` (stereo not shown) the value was -16.8%.
Next, `O=C(NCc1ccccc1)C(c1ccco1)N(C(=O)c1ccccn1)c1ccccc1` (stereo not shown): 1.58%.
As to `C#CCOC(=O)Nc1cccn(Cc2c(Cl)cccc2Cl)c1=O`, the “hERG current change (%, negative = inhibition) at 10uM” value was -3.48%.
As to `COc1ccc(CNCC(=O)N2CCC3(CC2)OCCO3)cc1.O=C(O)C(=O)O`, the “hERG current change (%, negative = inhibition) at 10uM” value is reported as -11.4%.
With `Cc1cc(C)c(NC(=O)CCCC(=O)O)c(Cl)c1`, the “hERG current change (%, negative = inhibition) at 10uM” value is 12%.
Regarding `COC(=O)c1ccc(CO/N=C2\CCCc3nonc32)cc1`, the “hERG current change (%, negative = inhibition) at 10uM” value is reported as -35.1%.
Take `CCOc1ccccc1N(CC(=O)NCCSCc1ccco1)S(=O)(=O)c1ccccc1`: the “hERG current change (%, negative = inhibition) at 10uM” value is 1.71%.
